{"source": "PubChem BioAssay AID686979", "about": "(National Center for Advancing Translational Sciences (NCATS), 2013)", "note": "Values joined by “and” are separate entries in the source; they are usually repeats but may differ in a detail not shown here. Identical values can stand only once. Out of some 420,000 compounds screened, about 50,000 (12%) were called active. Inconclusive results, whose numbers are uncertain, are shown with a selection of clear calls. Calls follow the shape of the dose curve; as a rule, active = well fitted inhibition curve with a large enough effect; inconclusive = small, poorly fitted or top-dose-only effect; inactive = flat fitted curve, though single readings scatter. A potency beside an inconclusive call is a rough fit, not a confirmed value. % is scaled to controls: 0 for no effect and ±100 for the full control effect; potency is read from the fitted curve at half-maximal effect; tags tell the direction and shape of the fitted curve.", "data": [{"experiment": "qHTS for Inhibitors of human tyrosyl-DNA phosphodiesterase 1 (TDP1): qHTS in cells in presence of CPT; also: nearly all actives have a fitted effect of over 55% in size", "conditions": "chicken DT40 Tdp1-/-;hTDP1 cells + 20 nM CPT, ATP luminescence, 48 h; activity change, negative = growth inhibition: at 46.2 µM (top of the series) unless noted", "in_short": "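Cell growth measured by CellTiter-Glo luminescence after a minimum 48 h, 37 C compound exposure with 20 nM CPT in Tdp1-knockout DT40 cells stably expressing hTDP1, seeded 400/well; qHTS titration format.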", "values": [{"smiles": "O=C(N/N=C/c1ccccc1OCc1ccccc1)c1cccs1", "Potency": "inconclusive: 16.4 µM [inhibitor, single point]"}, {"smiles": "CCc1nnc(NC(=O)CSc2nnc(-c3ccco3)o2)s1", "Potency": "inactive"}, {"smiles": "COC(=O)c1nn(-c2ccccc2)c(Sc2ccc(Br)cc2)c1/C=N/O", "activity change, negative = growth inhibition": "inconclusive: -32.4% [inhibitor]"}, {"smiles": "CCOc1ccc(C2c3c(oc4ccccc4c3=O)C(=O)N2c2ccc(C)cn2)cc1OC", "note": "(stereo not drawn)", "Potency": "inconclusive: 18.4 µM [inhibitor, single point]"}, {"smiles": "Cc1ccccc1CNC(=O)C(=O)NCC(c1cccs1)S(=O)(=O)c1cccs1", "note": "(stereo not drawn)", "Potency": "active: 13 µM"}, {"smiles": "O=c1c2oc3ccccc3c2n(Cc2cccc(F)c2)c(=O)n1Cc1ccc2c(c1)OCO2", "Potency": "inactive"}, {"smiles": "Cc1cc2ccccc2cc1CN1CCCCC1", "Potency": "inactive"}, {"smiles": "COCCn1nnnc1C(c1ccccc1)N1CCN(Cc2ccc3c(c2)OCO3)CC1", "note": "(stereo not drawn)", "Potency": "inactive"}, {"smiles": "CN1CC(=O)N(CC(=O)Nc2ccc(OC(F)(F)F)cc2)c2ccccc2C1=O", "Potency": "inactive"}, {"smiles": "CCN(Cc1ccccc1)c1ccc(/C=N/N=C(N)N)cc1", "Potency": "active: 10.3 µM"}, {"smiles": "O=C(CNCc1ccccc1Cl)Nc1ccc(C(=O)N2CCCCC2)cc1", "Potency": "inconclusive: 25.9 µM [inhibitor, single point]"}, {"smiles": "CCOc1ccc(-c2cc(C(=O)NCCc3ccc(OC)c(OC)c3)[nH]n2)cc1", "Potency": "inconclusive: 5.8 µM [inhibitor, partial curve]"}, {"smiles": "COC(=O)C1(Cc2cc(-c3cccc(Br)c3)no2)CCN(C(=O)OC(C)(C)C)CC1", "Potency": "inconclusive: 20.6 µM [inhibitor, single point]"}, {"smiles": "C[C@H](NC(=O)C1CCC(CNC(=O)[C@@H]2CCCN2C(=O)OC(C)(C)C)CC1)C(=O)O", "note": "(stereo partly drawn)", "Potency": "inactive"}, {"smiles": "Cc1cccc(NC(=S)Nc2ccc(Oc3ccccc3)cc2)n1", "Potency": "inconclusive: 18.4 µM [inhibitor, single point]"}, {"smiles": "COC(=O)c1c(C(=O)OC)c(-c2ccc(F)cc2)n2c1CS(=O)C2", "note": "(stereo not drawn)", "Potency": "inactive"}, {"smiles": "CCOC(=O)c1c(NC(=O)c2cc(CC)on2)sc(C(C)=O)c1C", "Potency": "inactive"}, {"smiles": "CC1C[N+](=C2C=C(N3CCOCC3)CC(C)(C)C2)CC(C)O1", "note": "(stereo not drawn)", "Potency": "inactive"}, {"smiles": "CN(CCC#N)C(=S)Nc1ccc(Oc2ccccc2)cc1", "Potency": "inconclusive: 23.1 µM [inhibitor, single point]"}, {"smiles": "N#Cc1c(NC(=O)c2ccc([N+](=O)[O-])o2)sc2c1CCC2", "Potency": "active: 18.4 µM"}, {"smiles": "O=C1C=C(c2cc3ccccc3s2)C[C@@H](c2ccc(Cl)cc2)C1", "Potency": "active: 9.2 µM"}, {"smiles": "O=C(NCCCN1CCCCC1)c1ccc2c(c1)NC(=O)C(N1CCCCC1)S2", "note": "(stereo not drawn)", "Potency": "inconclusive: 29.1 µM [inhibitor, single point]"}, {"smiles": "Cc1cccc(C(=O)NCCNC(=O)c2ccccn2)c1", "Potency": "inactive"}, {"smiles": "Nc1cc(Cl)c(NC2=NCCN2)c(Cl)c1", "Potency": "inactive"}, {"smiles": "C[C@@]12CCC[C@H]1[C@@H]1CC[C@H]3C[C@@H](O)CC[C@]3(C)[C@H]1CC2", "Potency": "inactive"}, {"smiles": "CC(=O)Nc1ccc(OC(F)(F)C(F)C(F)(F)F)c(NC(C)=O)c1", "note": "(stereo not drawn)", "Potency": "inactive"}, {"smiles": "CCOC(=O)c1ccc(NC(=O)CCc2nc3cccnc3n2Cc2cccs2)cc1", "Potency": "inconclusive: 20.6 µM [inhibitor, single point]"}, {"smiles": "O=[N+]([O-])c1cc(C(F)(F)F)ccc1NCCc1ccncc1", "Potency": "inconclusive: 29.1 µM [inhibitor, single point]"}, {"smiles": "COc1ccc(Br)cc1CN(C)CC(=O)Nc1ccccc1Cl", "Potency": "inactive"}, {"smiles": "CCNc1ncc2ncc(=O)n(C)c2n1", "Potency": "inconclusive: 14.6 µM [inhibitor, partial curve]"}, {"smiles": "CC(C)(C)OC(=O)N[C@H](C(=O)OC(C)(C)C)c1ccc2c(c1)OCO2", "Potency": "inconclusive: 25.9 µM [inhibitor, single point]"}, {"smiles": "CCOc1ccc2nc(NC(=O)Cn3[nH]c(=O)c4ccccc4c3=O)sc2c1", "Potency": "active: 23.1 µM"}, {"smiles": "CC1CCN(c2ncnc3nc[nH]c23)CC1", "Potency": "inconclusive: 23.1 µM [inhibitor, single point]"}, {"smiles": "Cc1ccc2c(c1)nnn2C1CCN(S(=O)(=O)c2ccc(C(=O)N3C(C)CCCC3C)cc2)CC1", "note": "(stereo not drawn)", "Potency": "active: 9.2 µM"}, {"smiles": "COc1ccc(-c2nnc(SCC(=O)NC3CC3)o2)cc1", "Potency": "inactive"}, {"smiles": "CC(=O)c1ccc(N2CCN(c3ccc4cc(S(=O)(=O)N5CCC(C)CC5)ccc4n3)CC2)cc1", "Potency": "inconclusive: 6.51 µM [inhibitor, partial curve] and inconclusive: 25.9 µM [inhibitor, single point]"}, {"smiles": "COC(=O)[C@]1(Sc2ccccc2)CC(=O)N[C@@H]1c1ccccc1", "Potency": "inactive"}, {"smiles": "N#CC1=C(Nc2ccccc2)SC=C(c2ccccc2)N=C1N1CCOCC1", "Potency": "active: 5.8 µM"}, {"smiles": "O=C(c1cc(-c2cccs2)on1)N1CCN(C(c2ccccc2)c2ccccc2)CC1", "Potency": "inconclusive: 29.1 µM [inhibitor, single point]"}, {"smiles": "O=C(C[C@H]1C/C=C\\C[C@H](NC(=O)OCC2c3ccccc3-c3ccccc32)C(=O)OC[C@H]2CCCN2C1=O)NCCO", "Potency": "active: 11.6 µM"}, {"smiles": "C[C@H](CO)N1C[C@H](C)[C@@H](CN(C)S(=O)(=O)c2ccccc2F)OCc2cnnn2CCCC1=O", "Potency": "inactive"}, {"smiles": "COc1ccc(NC(=O)CCS(=O)(=O)c2ccccc2Cl)cc1S(=O)(=O)Nc1ccc(Cl)cc1", "Potency": "inconclusive: 18.4 µM [inhibitor, single point]"}, {"smiles": "Cc1ccc(S/C(=N/S(=O)(=O)c2ccc(Cl)cc2)c2ccccc2)cc1", "Potency": "active: 11.2 µM"}, {"smiles": "Cc1ccc(S(=O)(=O)NC(=O)N[C@@H](C)Cc2ccccc2)cc1", "Potency": "inactive"}, {"smiles": "O=C(c1ccc(Br)cc1)N(C1=NCCCCS1)c1ccccc1", "Potency": "inconclusive: 23.1 µM [inhibitor, single point]"}, {"smiles": "Cc1ccc(-c2cc(Cc3ccccc3)c(=O)[nH]n2)cc1", "Potency": "inconclusive: 29.1 µM [inhibitor, single point]"}, {"smiles": "Cc1ccc(CC(=O)N/N=C/c2ccc(OC(=O)c3ccc([N+](=O)[O-])cc3)cc2)cc1", "Potency": "inconclusive: 29.1 µM [inhibitor, single point]"}, {"smiles": "O=C(CN1C(=O)NC2(CCCCC2)C1=O)Nc1cc(C(F)(F)F)ccc1N1CCCCC1", "Potency": "inconclusive: 18.4 µM [inhibitor, single point]"}, {"smiles": "O=C1CCCN1c1ccc(S(=O)(=O)Nc2ccc3c(c2)OCCO3)cc1", "Potency": "active: 3.26 µM"}, {"smiles": "CCN(CC)C(=O)Cn1cnc2sc(C(=O)Nc3cc(OC)c(OC)c(OC)c3)c(C)c2c1=O", "Potency": "inconclusive: 29.1 µM [inhibitor, partial curve, poor fit]"}, {"smiles": "Cc1ccc(S(=O)(=O)N(CC(=O)NCCC2=CCCCC2)Cc2ccccc2)cc1", "Potency": "inconclusive: 23.1 µM [inhibitor, single point]"}, {"smiles": "O=C(NCCCO)C(=O)Nc1cc2c3c(c1)CCC(=O)N3CCC2", "Potency": "inactive"}, {"smiles": "CC(=O)N(/N=C/c1ccc([N+](=O)[O-])o1)c1nc2ccccc2c(=O)n1-c1ccccc1", "Potency": "inconclusive: 29.1 µM [inhibitor, single point]"}, {"smiles": "Cc1ccc(-c2cc(C(F)F)n3ncc(C(=O)N4CCN(c5cccc(C)c5C)CC4)c3n2)cc1", "Potency": "inconclusive: 29.1 µM [inhibitor, single point]"}, {"smiles": "COc1ccc(N2CCN(C(=O)C3CCN(c4nc5ccc(C)cc5[nH]4)CC3)CC2)cc1", "Potency": "active: 10.3 µM"}, {"smiles": "O=C(c1ccc2c(c1)OCO2)C1CCCN(Cc2ccccc2OC(F)F)C1", "note": "(stereo not drawn)", "Potency": "active: 16.4 µM"}, {"smiles": "Cc1cccc(Cn2c(Cc3ccccc3)nc3ccccc32)c1", "Potency": "inconclusive: 29.1 µM [inhibitor, single point]"}, {"smiles": "Cc1cnc(CNC(=O)c2csc(COCCO)n2)cn1", "Potency": "inactive"}, {"smiles": "COc1ccc(Br)cc1CN1CCN(Cc2c[nH]c3ccccc23)CC1", "Potency": "active: 4.61 µM"}, {"smiles": "CCc1nnc(NC(=O)c2sc3nc4c(cc3c2N)CCCCC4)s1", "Potency": "inconclusive: 0.651 µM [inhibitor, full curve]"}, {"smiles": "O=C(CN1c2ccccc2S(=O)(=O)c2ccccc21)Nc1cccc(C(F)(F)F)c1", "Potency": "inconclusive: 29.1 µM [inhibitor, single point]"}, {"smiles": "Cc1cc(C[n+]2ccccc2)c2nsnc2c1", "Potency": "inconclusive: 29.1 µM [inhibitor, single point]"}, {"smiles": "Cc1ncc(CN2CCN(CCC(C)C)C(CCO)C2)s1", "note": "(stereo not drawn)", "Potency": "inactive"}, {"smiles": "CSc1ccc(CCNC(=O)c2c(C)oc3ncn(C)c(=O)c23)cc1", "Potency": "inconclusive: 20.6 µM [inhibitor, partial curve, poor fit]"}, {"smiles": "N#CC1=C(N)C(C#N)(C#N)[C@H](c2ccncc2)[C@H]2CC3(CC=C12)OCCO3", "Potency": "inconclusive: 25.9 µM [inhibitor, single point]"}, {"smiles": "CCOC(=O)c1c2c(n3ccccc13)C(=O)c1ccccc1C2=O", "Potency": "active: 10 µM"}, {"smiles": "COc1ccc(C(=O)C[n+]2cc(-c3ccc(OC)cc3)n3c2CCCC3)cc1", "Potency": "active: 5.17 µM and active: 9.2 µM"}, {"smiles": "COc1ccc(-n2nc(N)c(C(N)=O)n2)cc1", "Potency": "inconclusive: 13 µM [inhibitor, partial curve, poor fit]"}, {"smiles": "O=C(Cc1ccc(S(=O)(=O)N2CCOCC2)s1)Nc1ccc(S(=O)(=O)N2CCCCC2)cc1", "Potency": "active: 18.4 µM"}, {"smiles": "O=c1[nH]c(N2CCOCC2)nc2c1CCCC2", "Potency": "inconclusive: 20.6 µM [inhibitor, single point]"}, {"smiles": "COCC(=O)Nc1ccc(N2CCOCC2)c(S(=O)(=O)Nc2ccccc2OC)c1", "Potency": "inactive"}, {"smiles": "Cc1ccccc1CNC(=O)c1[nH]c(C(F)(F)F)nc1-c1ccccc1", "Potency": "inconclusive: 20.6 µM [inhibitor, single point]"}, {"smiles": "Cc1ccc(N2CCN(S(=O)(=O)c3c(C)nc4scc(C)n4c3=O)CC2)c(C)c1", "Potency": "inconclusive: 18.4 µM [inhibitor, partial curve, poor fit]"}]}]}
